These are yes or no findings as the source states them, for the method shown. In cells and extracts the contact can be indirect. Some binding calls cover weakened binding; strength is not graded here. For some assays here: Sequences can lack the tags named with a protein.
B1: ICAM1 with C-terminal Flag tag (ICAM1-Flag) or C-terminal Myc tag (ICAM1-Myc), wild type, P05362 28-532 (protein)
chain: QTSVSPSKVILPRGGSVLVTCSTSCDQPKLLGIETPLPKKELLLPGNNRKVYELSNVQEDSQPMCYSNCPDGQSTAKTFLTVYWTPERVELAPLPSWQPVGKNLTLRCQVEGGAPRANLTVVLLRGEKELKREPAVGEPAEVTTTVLVRRDHHGANFSCRTELDLRPQGLELFENTSAPYQLQTFVLPATPPQLVSPRVLEVDTQGTVVCSLDGLFPVSEAQVHLALGDQRLNPTVTYGNDSFSAKASVSVTAEDEGTQRLTCAVILGNQSQETLQTVTIYSFPAPNVILTKPEVSEGTEVTVKCEAHPRAKVTLNGVPAQPLGPRAQLLLKATPEDNGRSFSCSATLEVAGQLIHKNQTRELRVLYGPRLDERDCPGNWTWPENSQQTPMCQAWGNPLPELKCLKDGTFPLPIGESVTVTRDLEGTYLCRARSTQGEVTRKVTVNVLSPRYEIVIITVVAAAVIMGTAGLSTYLYNRQRKIKKYRLQQAQKGTPMKPNTQATPP

How the values were obtained:
[1] = target: ICAM1 with C-terminal Flag tag (ICAM1-Flag) or C-terminal Myc tag (ICAM1-Myc), wild type (human) (UniProt P05362); assay: co-IP; ICAM1-Flag and ICAM1-Myc (or a Myc variant) transfected into two separate sets of HEK-293 cells; cells mixed and aggregated on poly-HEMA plates for 3-6 h, lysed in Pierce IP lysis buffer; anti-Flag magnetic beads overnight at 4 °C; immunoblots for Flag, Myc and ICAM1
[2] = target: T1, ICAM1 with C-terminal Flag tag (ICAM1-Flag) or C-terminal Myc tag (ICAM1-Myc), wild type (human), P05362; assay: as above; conditions: remark: other sources report otherwise
T1 chain: B1 chain

Molecule	binding [1]	binding [2]
ICAM1-Myc variant M2 with truncated domain IV (Δ310-394) (from UniProt P05362 28-532)	no binding	–
ICAM1-Myc variant M1 with truncated domain II (Δ112-211) (from UniProt P05362 28-532)	no binding	–
ICAM1-Myc variant M4 with combined mutations (M1-M2-M3) (from UniProt P05362 28-532)	no binding	–
ICAM1-Myc variant M3 with predicted homodimer-disruptive mutations R287D/N296E/Q297A in domain III (from UniProt P05362 28-532)	no binding	–
B1	–	binds
